Molecules are shown by their SMILES. Values joined by “and” are separate entries in the source; they are usually repeats but may differ in a detail not shown here. Equal entries are not always repeated. Whole data set: some 5,400 compounds, median “IFI” near 2, cut for the highest 2% near 22. The list shows a part of the results.

This experiment can be described thus: NOVARTIS: Inhibition Frequency Index (IFI) - the number of HTS assays where a compound showed > 50% inhibition/induction, expressed as a percentage of the number of assays in which the compound was tested. Type of experiment: functional.
Compound `Cc1cc(C)cc(NC(=S)NNc2ccnc3cc(Cl)ccc23)c1` came in with an IFI of 2.94%.
Compound `CCC1=NN2C(=N)/C(=C/c3cn(CCOc4cccc(C)c4)c4ccccc34)C(=O)N=C2S1` showed an IFI of 0%.
`Cc1ccc(C)c(CN2C(=O)c3ccccc3S(=O)(=O)c3ccc(C(=O)NCCCN4CCCC(C)C4)cc32)c1` (stereo unspecified) showed an IFI of 0%.
With `Cc1ccc2ccc(C(Nc3ccccn3)c3ccc(Br)cc3)c(O)c2n1` (stereo unspecified) the figure was 8.33%.
Under `Cc1cc(C)c(S(=O)(=O)N(C)CCCNc2ccnc3cc(Cl)ccc23)c(C)c1` stands 4.72%.
With `Cc1ccn2c(NC(C)(C)CC(C)(C)C)c(-c3ccccc3OC(=O)c3ccco3)nc2c1` the figure was 3.74%.
For the compound `CC(=O)Nc1ccc2c(c1)C(=O)N(C(C(=O)NCC(=O)O)C1CCCCC1)[C@@H](CCC(=O)O)C(=O)N2` (stereo partly specified), the IFI stood at 1.22%.
With `CC(C)C1N=C2c3ccccc3N=C(SCC(=O)Nc3cc(C(F)(F)F)ccc3Cl)N2C1=O` (stereo unspecified) the figure was 3.53%.
For `COc1ccccc1C(=O)ON=C(N)Cc1cccc2ccccc12`, the IFI was 0%.
With `CN(CC(=O)NC(C)(C)C)S(=O)(=O)c1ccccc1` the figure was 0%; with `Cc1ccc(F)cc1NC(=O)c1cc(Cl)ccc1Nc1ccccc1`, 2.86%.
Compound `CCN1/C(=C/C=C/C2=[N+](C)c3ccc(C)cc3C2(C)C)C=Cc2ccccc21` gave an IFI of 28.6%.
Under `O=C(Nc1ccccc1C(F)(F)F)N1CCC(N2CCCCC2)CC1` stands 0%; under `CC12CN3CC(C)(CN(C1)C3c1ccccc1)C2=O` (stereo unspecified), 0%; under `Brc1ccc(/C=C/c2cc[n+](Cc3ccccc3)cc2)cc1`, 10.6%.
Take `O=C(c1ccc([N+](=O)[O-])cc1)C1C(C(=O)c2ccc(F)cc2)C2(C(=O)Nc3ccccc32)C2C=Cc3ccccc3N12` (stereo unspecified): the IFI turned out to be 14.3%.
In turn, `CC(C)C1c2[nH]c3ccccc3c2CCN1C(=O)CCl` (stereo unspecified) gave an IFI of 12%.
Under `CCOc1ccccc1-n1c(C(C)N(Cc2ccccc2)C(=O)Nc2ccccc2OC)nc2ccccc2c1=O` (stereo unspecified) stands 1.89%.
With `Cc1cc(C)c2cc(CN(CCN(C)C)C(=S)NCCCN(C)C)c(=O)[nH]c2c1` the figure was 3.12%; with `Oc1ccc(-c2cncc(NCc3ccc(Cl)cc3)c2)cc1`, 0%.
With `CN(C)c1ccc(N2C(N)=NC(N)=NC23CCCC3)cc1` the figure was 0%; with `CC[C@@H]1CCC[C@H](C)CC[C@@H](O[C@@H]2O[C@@H](C)[C@@H](O)[C@@H](N)[C@H]2O)[C@H](CC)CCCNC1=O`, 1.51%.
Take `Cc1ccc(CC(=O)Nc2ccc(I)cc2)cc1`: the IFI came out at 0%.
Under `Cc1cnc(Sc2ccccn2)c([N+](=O)[O-])c1` stands 0%; under `CCN1CCN(c2cc(C)c3cc(NC(=O)c4cc(OC)cc(OC)c4)ccc3n2)CC1`, 0%; under `COc1ccc2nc(C)cc(N(c3ccc(Br)cc3)S(=O)(=O)c3ccc([N+](=O)[O-])cc3)c2c1`, 4.25%.
Under `COc1cc2nc(NCc3ccccc3)n3nc(-c4cccnc4)nc3c2cc1OC` stands 0%; under `CC[n+]1c(/C=C/c2cc(Br)ccc2OC)ccc2ccccc21`, 7.44%; under `CCOC(=O)C(=O)N1c2ccc(C)cc2-c2c(ssc2=S)C1(C)C`, 0%.
In turn, `COc1ccc(Cn2c(SCC(=O)Nc3ccccc3OC)nc3ccsc3c2=O)cc1` had an IFI of 0%.
With `N#Cc1nc(C(=O)N2CCOCC2)oc1N1CCOCC1` the figure was 0%.
With `CC(/C=C/C(=O)NO)=C\[C@@H](C)C(=O)c1ccc(N(C)C)cc1` the figure was 22.6%.
Under `COc1ccc(Nc2nc(NN=Cc3cc4c(cc3Br)OCO4)nc(Nc3ccc([N+](=O)[O-])cc3)n2)cc1` stands 6.49%.
For `CC(C)c1ccc(NC(=O)C(Cc2cccs2)c2nnn[nH]2)cc1` (stereo unspecified), the IFI turned out to be 4.72%.
Under `CCOC(=O)c1ccc2c(c1)[n+](CC)c(/C=C/N(C)c1ccccc1)n2CC` stands 7.41%; under `Cc1nc(-c2ccc[n+](C)c2)sc1C(=O)/C=C/c1ccc(Cl)cc1`, 5.71%.
With `CCOC(=O)c1ccc(N(C(=O)CSCC(=O)Nc2cc(C)on2)C(C(=O)NC2CCCCC2)c2ccc(O)c(O)c2)cc1` (stereo unspecified) the figure was 2.73%; with `Cc1ccc(Nc2cc(C)nc(NCc3ccccc3)n2)cc1`, 5.81%; with `O=C1c2ccccc2-[n+]2ccc3c([nH]c4ccccc43)c21`, 41.2%.
With `CCN1CCN(Cc2ccc(-c3cc4c(N[C@H](C)c5ccccc5)ncnc4[nH]3)cc2)CC1` the figure was 6.67%; with `CCC(=O)Oc1ccccc1-c1nc2ccccn2c1NC(C)(C)CC(C)(C)C`, 2.83%.
For the compound `CCOC(=O)C1=C(C)NC2=C(C(=O)C(C(=O)OCC)C(c3ccc(OC)cc3)C2)C1c1ccc([N+](=O)[O-])cc1` (stereo unspecified), the IFI was 3.57%.
Under `CC(C)N1CCC(N2CCN(Cc3ccc4c(c3)Cc3ccccc3-4)CC2CCO)CC1` (stereo unspecified) stands 8.33%.
Under `COc1cc2nc(NCc3ccccn3)n3nc(-c4ccccc4)nc3c2cc1OC` stands 0%; under `Cc1ccc(CNC(=O)C2CNCC2c2ccc(C(F)(F)F)cc2)cc1` (stereo unspecified), 2.82%.
Under `Cc1ccn2c(NC(C)(C)CC(C)(C)C)c(-c3ccccc3OC(=O)CCCCl)nc2c1` stands 4.67%.
The compound `CC(NC(=S)N(Cc1ccco1)Cc1cc2cc3c(cc2[nH]c1=O)OCO3)c1ccccc1` (stereo unspecified) gave an IFI of 5.79%.
With `COc1ccc(C2CC(=O)C3=C(C2)NC(C)=C(C(=O)OC(C)C)C3c2ccccc2F)cc1OC` (stereo unspecified) the figure was 4.76%; with `CN(C)c1ccc(C(=C2C=CC(=[N+](C)C)C=C2)c2ccc(N(C)C)cc2)cc1`, 25.7%; with `Clc1ccc(Nc2nc3nonc3nc2Nc2ccc(Cl)c(Cl)c2)cc1Cl`, 7.14%.
Under `COc1ccc(C2C(C(=O)NCCN(C)C)c3ccccc3C(=O)N2C2CCCCC2)cc1` (stereo unspecified) stands 0%; under `CCOC(=O)c1c(NC(=O)CSc2nnc(CNC(=O)c3cccc(C)c3)n2Cc2ccccc2)sc2c1CCCC2`, 0%; under `COc1ccc([N+](=O)[O-])cc1C=NNc1nc(Nc2ccc([N+](=O)[O-])cc2)nc(N2CCN(C)CC2)n1`, 3.95%.
With `CC[n+]1c(C=C2C=CN(C)C=C2)ccc2cc(C)ccc21` the figure was 7.81%; with `CCC(C)C(=O)N1CCC(C(=O)Nc2ccc(-c3nc4ccccc4o3)cc2)CC1` (stereo unspecified), 0%.
`CN(CCCNc1ccnc2cc(Cl)ccc12)C(=O)c1cc(C(F)(F)F)cc(C(F)(F)F)c1` gave an IFI of 2.08%.
As to `CCCCCCN(C(=O)c1ccc2ccccc2c1)C(CC)c1nc2ccccc2c(=O)n1-c1cccc(Cl)c1` (stereo unspecified), the IFI stood at 3.67%.
Under `COc1ccccc1CN1CCc2nc(N3CCCCC3)sc2C1` stands 9.72%; under `Oc1ccccc1-c1nc2sc(-c3ccccc3O)nc2s1`, 11%.
Under `CC(C)(C)C1=NN(CC(=O)NCCc2c[nH]cn2)C(=O)c2cc3ccccc3n2C1` stands 0%; under `O=C(NCCCCNc1ccnc2cc(Cl)ccc12)c1cccc(C(F)(F)F)c1`, 0.935%.
With `COc1cnc(-c2ccccn2)nc1NC(C)C` the figure was 2.5%; with `CC1CNC2C(C)C3C(CC4C5CCC6CC(N)CCC6(C)C5CCC43C)OC2(O)C1` (stereo unspecified), 5.26%; with `COc1cccc2c1[C@@H](OC)[C@@]13O[C@]1(C2=O)[C@H](O)[C@@H](C)[C@](O)(C(=O)[C@@H]1O[C@H]1C)[C@H]3O`, 20.4%.
Consider `COc1ccc(/C=C2\SC(=O)NC2=Nc2ccccc2)cc1`, for which the IFI turned out to be 0%.
With `COc1ccccc1/C=C/C1=NC(=C\c2ccc(SC)cc2)/C(=O)O1` the figure was 0%; with `Oc1ccc(Cl)cc1C1CC(c2ccc(Cl)cc2)=NC(c2ccc(Cl)cc2)N1` (stereo unspecified), 0%.
With `N#Cc1c2c(c(N3CCN(Cc4ccccc4)CC3)n3c1nc1ccccc13)CCC2`, the IFI was 1.15%.
Under `COc1ccc(C2CC(=O)C3=C(C2)NC(C)=C(C(=O)OC(C)C)C3c2ccc(F)cc2)cc1` (stereo unspecified) stands 3.49%; under `CCOc1ccc(NC2=C(N3CCOCC3)C(=O)c3ccccc3C2=O)cc1`, 0%; under `C=CCn1c(SCC(=O)Nc2ccccc2C)nc2sc(C)cc2c1=O`, 0%.
With `COc1ccc(OC)c(C(C(=O)NC2CCCC2)N(C(=O)c2snc(C(N)=O)c2N)c2ccccc2OC)c1` (stereo unspecified) the figure was 6.31%.
Under `COc1ccc(-c2nc(-c3ccncc3)cnc2N)cc1OC` stands 0%; under `O=C(Cc1ccccc1)N1CCOc2c(cc(-c3csc4ccccc34)cc2OCCc2ccccn2)C1`, 4.04%.
As to `FC(F)(F)c1cccc(NC(=S)N2CCSC2c2ccc(Br)cc2)c1` (stereo unspecified), the IFI is 4.54%.
With `Cc1ccc(CN=C(N)Nc2nc(C)cc(C)n2)cc1` the figure was 7.53%; with `O=C(NCCCCCCCCCCNC(=O)Nc1ccc(C2=NCCCN2)cc1)Nc1ccc(C2=NCCCN2)cc1`, 1.83%.
With `O=C(CN1CCCC1)N1N=C(c2cccs2)CC1c1ccc(F)cc1` (stereo unspecified) the figure was 0%; with `CSc1nc(N)c2c3c(sc2n1)CCCC3`, 1.19%.
Under `COc1ccc(S(=O)(=O)N2CCC(c3nnc(-c4ccccc4OC)o3)CC2)cc1` stands 0%; under `CCOC(=O)N1CCN(S(=O)(=O)c2ccc(C(=O)Nc3sc4c(c3C(N)=O)CCN(CC)C4)cc2)CC1`, 1.21%.
The compound `CN(CCCNc1ccnc2cc(Cl)ccc12)C(=O)c1ccc(F)cc1` returned an IFI of 0.935%.
Under `c1ccc(CSc2nnc3c(n2)[nH]c2ccccc23)cc1` stands 0% and 3.82%; under `CCN(CC)c1nc(Nc2cc(C)ccc2C)nc(Nc2ccccc2O)n1`, 0%.
On to `COc1ccc(CN(Cc2cc3cc(OC)c(OC)cc3[nH]c2=O)C(=S)NCCc2ccc(OC)c(OC)c2)cc1`, for which the IFI was determined as 5.41%.
The compound `COc1cc(NC(=O)Cn2ncc3c(=O)oc4ccccc4c32)cc(OC)c1OC` registered an IFI of 0%.
Under `Cc1ncc([N+](=O)[O-])n1CCOC(=O)NC(Nc1ccc(Br)cc1)C(Cl)(Cl)Cl` (stereo unspecified) stands 0%; under `Cn1c(=O)c(Cl)c2c3c(c(Cl)ccc31)C(=O)c1ccccc1-2`, 3.03%; under `COC(=O)C[S+]([O-])c1ccccc1` (stereo unspecified), 2.1%.
Under `COc1ccc(CC(=O)NCCCCNc2ccnc3cc(Cl)ccc23)cc1` stands 1.87%; under `CCCC(=O)NC(c1cccc([N+](=O)[O-])c1)c1ccc2cccnc2c1O` (stereo unspecified), 11.9%; under `CCN1CCN(C(=O)Nc2ccc(Cc3ccc(NC(=O)N4CCN(CC)CC4)cc3)cc2)CC1`, 1.12%.
Regarding `Cc1ccc(-c2cc3c(nn2)-c2ccccc2C3=O)cc1`, the IFI is 11.6%.
Under `OC(CNC1CCCCC1)Cn1c2ccc(Br)cc2c2cc(Br)ccc21` (stereo unspecified) stands 5.3%; under `Nc1cc(C(=O)Nc2cccc(C3=NCCN3)c2)ccc1C(=O)Nc1cccc(C2=NCCN2)c1`, 2.68%; under `CCOc1ccc2[nH]c(=O)c(C(c3nnnn3CCOC)N3CCCC3)cc2c1` (stereo unspecified), 0%.

The record behind these values is ChEMBL document CHEMBL1156829.
